Laboratory results: article PMC4336329 (PLoS ONE, 2015)
Among all 310,000 compounds or so, about 2,200 (0.71%) showed an effect of 50% or more. Effects have a minus sign here. This is one part of the list.

These molecules were tested against human ether-à-go-go-related gene (hERG) potassium channel (human, UniProt Q12809) (assay: primary screen, population patch clamp on CHO cells stably expressing hERG).
Chain of human ether-à-go-go-related gene (hERG) potassium channel (Q12809 whole entry, looked up): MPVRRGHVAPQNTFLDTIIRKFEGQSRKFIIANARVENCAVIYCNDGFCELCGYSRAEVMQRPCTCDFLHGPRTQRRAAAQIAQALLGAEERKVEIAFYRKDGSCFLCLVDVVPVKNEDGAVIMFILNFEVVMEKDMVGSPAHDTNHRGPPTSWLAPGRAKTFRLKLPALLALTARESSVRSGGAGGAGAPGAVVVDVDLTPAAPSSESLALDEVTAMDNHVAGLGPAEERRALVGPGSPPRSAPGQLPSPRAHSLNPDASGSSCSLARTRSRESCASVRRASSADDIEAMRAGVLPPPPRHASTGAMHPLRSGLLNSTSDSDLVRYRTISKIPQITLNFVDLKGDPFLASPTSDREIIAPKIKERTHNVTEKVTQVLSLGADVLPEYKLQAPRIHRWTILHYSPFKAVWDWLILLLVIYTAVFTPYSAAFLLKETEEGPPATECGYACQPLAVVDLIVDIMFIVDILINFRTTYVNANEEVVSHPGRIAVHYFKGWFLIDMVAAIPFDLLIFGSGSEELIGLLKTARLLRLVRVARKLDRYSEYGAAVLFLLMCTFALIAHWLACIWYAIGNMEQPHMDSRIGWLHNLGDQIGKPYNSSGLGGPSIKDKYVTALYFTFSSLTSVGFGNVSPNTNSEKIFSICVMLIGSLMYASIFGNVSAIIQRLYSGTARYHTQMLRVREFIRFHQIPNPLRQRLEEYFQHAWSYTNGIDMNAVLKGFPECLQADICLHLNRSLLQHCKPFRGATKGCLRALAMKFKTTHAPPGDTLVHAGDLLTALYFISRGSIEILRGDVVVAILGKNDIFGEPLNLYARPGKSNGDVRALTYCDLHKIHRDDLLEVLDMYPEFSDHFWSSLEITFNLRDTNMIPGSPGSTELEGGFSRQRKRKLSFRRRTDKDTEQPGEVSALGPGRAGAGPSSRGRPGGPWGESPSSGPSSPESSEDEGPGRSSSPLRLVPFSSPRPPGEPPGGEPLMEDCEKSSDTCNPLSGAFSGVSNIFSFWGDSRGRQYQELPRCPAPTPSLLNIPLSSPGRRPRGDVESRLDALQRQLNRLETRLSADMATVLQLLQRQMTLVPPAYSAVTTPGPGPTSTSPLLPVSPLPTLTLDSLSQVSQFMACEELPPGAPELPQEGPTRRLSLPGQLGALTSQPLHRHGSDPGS

SMILES | hERG current change (%, negative = inhibition) at 1uM [%]
COc1cc(OC)cc(C(C(=O)NC2CCCCC2)N(C(=O)c2ccno2)c2ccccc2)c1 (centres unmarked) | 12.8
CC(C)(C)NC(=O)CN(C(=O)C(=O)Nc1ccc2c(c1)OCCO2)C1CCCC1 | 9.58
CCn1c(SCC(=O)Nc2ccc(C(C)=O)cc2)nc2nc3c(cc2c1=O)COC(C)(C)C3 | 14.1
Cc1ccc(C)c(S(=O)(=O)N2CCCCC2CCNC(=O)C(=O)NCc2ccco2)c1 (centres unmarked) | 1.99
C/C(=N\NC(=O)c1nnn(-c2nonc2N)c1CN(C)c1ccccc1)c1cccc(O)c1 | 18.1
O=C(COC(=O)c1ccc(Cl)c([N+](=O)[O-])c1)Nc1ccccc1OC(F)F | 5.85
COc1ccc(OC)c(C2c3[nH]c4ccccc4c3C[C@H]3C(=O)N(CCCOC(C)C)CC(=O)N23)c1 (some centres unmarked) | -1.74
CCOC(=O)c1cc(C(C)C)sc1NC(=O)COC(=O)c1nccnc1N | -7.12
COc1ccc(CCNC(=O)CCN2C(=O)COc3ccc(C)cc32)cc1OC | 0.774
COCCN(C(=O)c1csnn1)C(C(=O)NC1CCCCC1)c1ccccc1 (centres unmarked) | 1.22
CCOC(=O)c1csc(NC(=O)c2ccccc2)n1 | 0.697
O=C(c1ccc(Cl)c(S(=O)(=O)N2CCCCCC2)c1)N1CCOCC1 | 12.7
CC1=C(C/C(C)=C/c2ccccc2)/C(=C/CO)[C@H](O)[C@](C)(O)C12CC2 | 16.9
Cc1ccc(C)c(N2CCN(S(=O)(=O)c3ccc4c(c3)OCCO4)CC2)c1 | 12.4
Cc1ccc(NC(=O)Cn2c(=O)c(C)nc3ccccc32)cc1 | 2.75
COc1ccc(NC2=CC(c3ccc(OC)cc3)N(c3ccc(OC)cc3)C2=O)cc1 (centres unmarked) | 9.17
CNc1nc2c(C)cccn2c(=O)c1C=Nc1ccc(OC)cc1 | 9.48
O=S(=O)(Nc1nc2ccccc2nc1NCC1CCCO1)c1ccccc1 (centres unmarked) | 11.7
Cc1ccc(C(=O)COC(=O)CCC(=O)Nc2cc(Cl)ccc2Cl)cc1[N+](=O)[O-] | 6.55
O=C(c1ccco1)N1CCN(C(=O)N2CCCCC2)CC1 | 14.7
COc1ccc(NC(=O)CSc2ccc3nnc(CCNC(=O)c4ccccc4)n3n2)cc1OC | 10.8
Cc1ccc(C(=O)NNC(=O)c2cc3cc4ccccc4nc3s2)cc1 | 4.48
Cc1nnc(SCc2ccccc2Cl)n1CC1CCCO1 (centres unmarked) | -2.69
O=C(CN(Cc1ccc2c(c1)OCO2)C(=O)CNS(=O)(=O)c1ccccc1)NCc1ccco1 | 0.375
CC(C)(C(=O)Nc1nccs1)c1ccccc1 | 0.971
CCC(CC)Nc1ccc(C(CC(N)=O)NC(=O)c2ccccc2)cc1[N+](=O)[O-] (centres unmarked) | 8.95
Cc1ccc([N+](=O)[O-])cc1NC(=O)CSc1n[nH]c(-c2cccnc2)n1 | 7.75

SMILES | hERG current change (%, negative = inhibition) at 1uM [%]
COc1cc(/C=C(\C#N)C(=O)NCC2CCCO2)ccc1OC(=O)c1ccco1 (centres unmarked) | 13.1
CCc1nn(CC(=O)NCCCN(CC)CC)c(=O)c2cc3sc(C)cc3n12 | 11.1
CC(=O)c1ccc(N2CCN(C(=O)C3CCCN3S(=O)(=O)c3cccc4nsnc34)CC2)cc1 (centres unmarked) | 14.6
Oc1c(Br)cc(Br)cc1/C=N/c1nc2c(s1)CCCC2 | 0.415
O=C1OC2(c3ccccc31)c1cc(I)c(O)c(I)c1Oc1c2cc(I)c(O)c1I | 8.02
CCCCN1C(=O)C(=O)N(CC(=O)NC2CCCc3ccccc32)C1=O (centres unmarked) | 8.35
COC(=O)C1=C(c2c(C)noc2C)C[C@@H]2CC[C@H]1N2C(=O)N1CCCCC1 | 11.3
COc1ccc(-n2c(C)c(C)c3c(NCCCN(C)C)ncnc32)cc1 | -7.76
Cc1cc(S(=O)(=O)NCc2cccnc2)ccc1F | 2.2
CCCCn1c(CN2CCN(c3cccc(Cl)c3)CC2)nc2c1c(=O)[nH]c(=O)n2C | 4.1
O=C(NC(c1ccc(Cl)cc1)c1c(O)ccc2ccccc12)c1ccccc1 (centres unmarked) | 5.06
Cc1cccc(C(=O)NCC(=O)N2CC=C(c3ccccc3)CC2)c1 | -1.82
CC(C)N1CCc2c(sc(NC(=O)C3CCCCC3)c2C(N)=O)C1.Cl | -5.83
O=[N+]([O-])c1c(Nc2ccccc2O)cc(Cl)c2nonc12 | 10.3
COc1ccc(N(CC(=O)NC2CCCC2)S(=O)(=O)c2ccc(NC(C)=O)cc2)cc1 | 6.69
O=C(Nc1ccc2c(c1)OCO2)N1CCN(c2ccccc2)CC1 | 6.41
O=C(Nc1cccc(S(=O)(=O)N2CCOCC2)c1)c1cn(-c2ccccc2)nc1-c1ccc(F)cc1 | 2.89
CC(/C=C\c1cccnc1)=C/C(=O)[O-].[Na+] | 7.43
COC(=O)c1c(NC(=O)CSc2ncnc3[nH]ncc23)sc2c1CCC2 | 5.61
CCN(C(=O)c1ccc(S(=O)(=O)N2CCC(C)CC2)cc1)C1CCS(=O)(=O)C1 (centres unmarked) | 8.2
CCN1CC2=C(OC(N)=C(C#N)C2c2cccs2)/C(=C/c2cccs2)C1 (centres unmarked) | 0.408
O=C(NC(Cc1ccccc1)C(=O)O)/C(=C/c1ccccc1)NC(=O)c1ccccc1 (centres unmarked) | 11.7
COc1ccc(NC(=O)C2CCN(c3cc(C)nc(-c4ccccc4)n3)CC2)cc1 | 2.19
CCCN1CC(C)C(OC(C)=O)(c2ccccc2)CC1C.Cl (centres unmarked) | 7.03
Cc1cc(C)nc(CC(N)=O)n1 | -6.16
CCOC(=O)c1nnn(-c2nonc2N)c1CNC(C)C | -15.2
